{"source": "the supplement of paper PMC4166925", "note": "± gives the standard deviation of the averaged measurements. Whole data set: some 33,000 sequences, median “E-score (dimensionless, -0.5 to 0.5)” near -0.046, cut for the highest 2% near 0.36. Some of the results follow."}
{"test_system": "T1, SpTbr T-box DNA-binding domain (GST fusion)", "T1 sequence": "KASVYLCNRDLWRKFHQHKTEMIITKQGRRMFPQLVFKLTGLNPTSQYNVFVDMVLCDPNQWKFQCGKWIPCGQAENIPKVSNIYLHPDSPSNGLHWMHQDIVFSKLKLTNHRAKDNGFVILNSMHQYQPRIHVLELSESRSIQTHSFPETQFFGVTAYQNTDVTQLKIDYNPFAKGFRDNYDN", "test": "PBM E-score of 8-mer (E-score (dimensionless, -0.5 to 0.5)); Tbr is Tbrain of the sea star Patiria miniata (Pm) or the sea urchin Strongylocentrotus purpuratus (Sp); higher = stronger binding preference; most listed sequences are background and not binding sites", "details": "the construct has about 5 more residues each side", "method_in_brief": "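Primer extension turned Universal Agilent oligonucleotide arrays double-stranded. They were incubated with 200 nM protein in PBS (pH 7.5); the protein was a GST-fused Tbr T-box DNA-binding domain expressed in BL21 E. coli at 20 °C and purified on glutathione. Every ungapped 8-mer was scored from the scanned, quantified probe intensities, and the Universal PBM Analysis Suite gave each an enrichment E-score averaged over duplicate arrays.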"}
{"sequence": "CGAAAGCG", "PBM E-score of 8-mer": "0.112 ± 0.014"}
{"sequence": "AATGGAAC", "PBM E-score of 8-mer": "-0.0265 ± 0.021"}
{"sequence": "AAGAATAG", "PBM E-score of 8-mer": "0.0775 ± 0.017"}
{"sequence": "ACCAGAGC", "PBM E-score of 8-mer": "-0.274 ± 0.033"}
{"sequence": "GTCGTATA", "PBM E-score of 8-mer": "-0.105 ± 0.081"}
{"sequence": "AAGGAGCT", "PBM E-score of 8-mer": "-0.233 ± 0.02"}
{"sequence": "CTACATGC", "PBM E-score of 8-mer": "-0.125 ± 0.0097"}
{"sequence": "ACTTGGAA", "PBM E-score of 8-mer": "-0.116 ± 0.055"}
{"sequence": "ATCTGGCA", "PBM E-score of 8-mer": "-0.0745 ± 0.035"}
{"sequence": "CCAGACGA", "PBM E-score of 8-mer": "-0.04605 ± 0.00013"}
{"sequence": "ACGGCAAG", "PBM E-score of 8-mer": "-0.0413 ± 0.04"}
{"sequence": "AATGCCAC", "PBM E-score of 8-mer": "0.082 ± 0.028"}
{"sequence": "AACAGACG", "PBM E-score of 8-mer": "-0.106 ± 0.075"}
{"sequence": "AAACTTCG", "PBM E-score of 8-mer": "-0.00264 ± 0.024"}
{"sequence": "GCAAAGAC", "PBM E-score of 8-mer": "0.0383 ± 0.028"}
{"sequence": "ACATCGGC", "PBM E-score of 8-mer": "0.0326 ± 0.061"}
{"sequence": "GCATTCAC", "PBM E-score of 8-mer": "0.171 ± 0.017"}
{"sequence": "ACAATAGT", "PBM E-score of 8-mer": "0.0742 ± 0.009"}
{"sequence": "AAGAATAA", "PBM E-score of 8-mer": "-0.227 ± 0.007"}
{"sequence": "CTGCAAGC", "PBM E-score of 8-mer": "-0.252 ± 0.061"}
{"sequence": "CCAGCAGA", "PBM E-score of 8-mer": "-0.0861 ± 0.052"}
{"sequence": "CATCGGAG", "PBM E-score of 8-mer": "-0.255 ± 0.072"}
{"sequence": "CTGATCAA", "PBM E-score of 8-mer": "0.0577 ± 0.13"}
{"sequence": "CCAAAAGG", "PBM E-score of 8-mer": "0.0721 ± 0.04"}
{"sequence": "GTTGATCA", "PBM E-score of 8-mer": "0.098 ± 0.0032"}
{"sequence": "GAATAGAC", "PBM E-score of 8-mer": "-0.129 ± 0.024"}
{"sequence": "GTGGGTGA", "PBM E-score of 8-mer": "0.194 ± 0.055"}
{"sequence": "ACTGATGA", "PBM E-score of 8-mer": "-0.0845 ± 0.0026"}
{"sequence": "GAAACCGA", "PBM E-score of 8-mer": "-0.00447 ± 0.019"}
{"sequence": "CCTCAATC", "PBM E-score of 8-mer": "-0.0759 ± 0.033"}
{"sequence": "ACATAATA", "PBM E-score of 8-mer": "-0.0636 ± 0.09"}
{"sequence": "AATCTAGG", "PBM E-score of 8-mer": "-0.293 ± 0.041"}
{"sequence": "ACAGTGTG", "PBM E-score of 8-mer": "0.338 ± 0.011"}
{"sequence": "AGCGTGTA", "PBM E-score of 8-mer": "0.0705 ± 0.048"}
{"sequence": "CAAAAGCG", "PBM E-score of 8-mer": "0.122 ± 0.06"}
{"sequence": "GGAATTCA", "PBM E-score of 8-mer": "-0.127 ± 0.1"}
{"sequence": "ACAAAACT", "PBM E-score of 8-mer": "0.0767 ± 0.031"}
{"sequence": "CACGGGGG", "PBM E-score of 8-mer": "-0.267 ± 0.033"}
{"sequence": "TGACCTCA", "PBM E-score of 8-mer": "0.0321 ± 0.076"}
{"sequence": "CTTGGCAA", "PBM E-score of 8-mer": "0.0153 ± 0.084"}
{"sequence": "CAATGCTG", "PBM E-score of 8-mer": "-0.0295 ± 0.024"}
{"sequence": "GGAGTACA", "PBM E-score of 8-mer": "-0.0355 ± 0.072"}
{"sequence": "CAGATCTG", "PBM E-score of 8-mer": "0.138 ± 0.044"}
{"sequence": "AATTAAGT", "PBM E-score of 8-mer": "-0.0956 ± 0.033"}
{"sequence": "CGACAAAC", "PBM E-score of 8-mer": "0.176 ± 0.0053"}
{"sequence": "AATTCAGA", "PBM E-score of 8-mer": "-0.178 ± 0.025"}
{"sequence": "CGTCGTAC", "PBM E-score of 8-mer": "-0.0278 ± 0.053"}
{"sequence": "ACTGGAGC", "PBM E-score of 8-mer": "-0.242 ± 0.028"}
{"sequence": "GGCACGAA", "PBM E-score of 8-mer": "0.0053 ± 0.037"}
{"sequence": "AGCTGTCA", "PBM E-score of 8-mer": "0.382 ± 0.022"}
{"sequence": "AACGGCTC", "PBM E-score of 8-mer": "0.206 ± 0.026"}
{"sequence": "CGCCTTAG", "PBM E-score of 8-mer": "0.29 ± 0.047"}
{"sequence": "CTCCACTC", "PBM E-score of 8-mer": "-0.0183 ± 0.018"}
{"sequence": "AACGCCCA", "PBM E-score of 8-mer": "0.195 ± 0.017"}
{"sequence": "CAGAAACC", "PBM E-score of 8-mer": "-0.106 ± 0.08"}
{"sequence": "CACAGGGA", "PBM E-score of 8-mer": "-0.077 ± 0.044"}
{"sequence": "CGTTCGGA", "PBM E-score of 8-mer": "-0.0228 ± 0.00031"}
{"sequence": "CGTGCGTC", "PBM E-score of 8-mer": "-0.00572 ± 0.046"}
{"sequence": "CATTCACC", "PBM E-score of 8-mer": "-0.0478 ± 0.011"}
{"sequence": "CAAGGCTG", "PBM E-score of 8-mer": "-0.0345 ± 0.053"}
{"sequence": "GGCAGTCA", "PBM E-score of 8-mer": "-0.102 ± 0.069"}
{"sequence": "AACGTACA", "PBM E-score of 8-mer": "-0.0208 ± 0.045"}
{"sequence": "GGTAACTA", "PBM E-score of 8-mer": "-0.261 ± 0.038"}
{"sequence": "CGGCCGGC", "PBM E-score of 8-mer": "-0.0637 ± 0.07"}
{"sequence": "CAGGAAAG", "PBM E-score of 8-mer": "0.1 ± 0.0096"}
{"sequence": "CCTAAAAG", "PBM E-score of 8-mer": "-0.119 ± 0.0035"}
{"sequence": "ACGCGTGA", "PBM E-score of 8-mer": "0.407 ± 0.0058"}
{"sequence": "ACTGTGGC", "PBM E-score of 8-mer": "0.0746 ± 0.026"}
{"sequence": "CCTAGCCC", "PBM E-score of 8-mer": "-0.146 ± 0.034"}
{"sequence": "AAAGATGT", "PBM E-score of 8-mer": "0.0899 ± 0.052"}
{"sequence": "GAGGAGCC", "PBM E-score of 8-mer": "-0.146 ± 0.02"}
{"sequence": "CGTTGATC", "PBM E-score of 8-mer": "-0.0521 ± 0.00074"}
{"sequence": "CACAGGCA", "PBM E-score of 8-mer": "-0.0816 ± 0.1"}
{"sequence": "AACGGAGA", "PBM E-score of 8-mer": "-0.152 ± 0.031"}
{"sequence": "ATATCGCG", "PBM E-score of 8-mer": "0.281 ± 0.053"}
{"sequence": "CAATCTAA", "PBM E-score of 8-mer": "-0.201 ± 0.013"}
{"sequence": "AGTGTATA", "PBM E-score of 8-mer": "-0.101 ± 0.014"}
{"sequence": "GAGTTCGC", "PBM E-score of 8-mer": "0.201 ± 0.0041"}
{"sequence": "ACTCCAGG", "PBM E-score of 8-mer": "-0.0824 ± 0.008"}
{"sequence": "GCTAGTAA", "PBM E-score of 8-mer": "-0.149 ± 0.015"}
{"sequence": "CGCGTGAG", "PBM E-score of 8-mer": "0.313 ± 0.0063"}
{"sequence": "AGCGAGCT", "PBM E-score of 8-mer": "0.0167 ± 0.06"}
{"sequence": "AGGTTCAC", "PBM E-score of 8-mer": "0.231 ± 0.04"}
{"sequence": "AAACTACT", "PBM E-score of 8-mer": "0.147 ± 0.026"}
{"sequence": "GACCGGTA", "PBM E-score of 8-mer": "-0.126 ± 0.0038"}
{"sequence": "AATTCCGC", "PBM E-score of 8-mer": "-0.0532 ± 0.035"}
